# Results from paper PMC4336329 (PLoS ONE, 2015).
# Screen size: about 310,000 compounds; about 14,000 (4.5%) showed an effect of 50% or more. The effect is printed as a negative number. This is one part of the list.
# Target: human ether-à-go-go-related gene (hERG) potassium channel (human, UniProt Q12809)
# Test: primary screen, population patch clamp on CHO cells stably expressing hERG
# 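Also: peak tail current of the secondary pulse compared with the same well before compound.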
# human ether-à-go-go-related gene (hERG) potassium channel, sequence (Q12809 whole entry, looked up): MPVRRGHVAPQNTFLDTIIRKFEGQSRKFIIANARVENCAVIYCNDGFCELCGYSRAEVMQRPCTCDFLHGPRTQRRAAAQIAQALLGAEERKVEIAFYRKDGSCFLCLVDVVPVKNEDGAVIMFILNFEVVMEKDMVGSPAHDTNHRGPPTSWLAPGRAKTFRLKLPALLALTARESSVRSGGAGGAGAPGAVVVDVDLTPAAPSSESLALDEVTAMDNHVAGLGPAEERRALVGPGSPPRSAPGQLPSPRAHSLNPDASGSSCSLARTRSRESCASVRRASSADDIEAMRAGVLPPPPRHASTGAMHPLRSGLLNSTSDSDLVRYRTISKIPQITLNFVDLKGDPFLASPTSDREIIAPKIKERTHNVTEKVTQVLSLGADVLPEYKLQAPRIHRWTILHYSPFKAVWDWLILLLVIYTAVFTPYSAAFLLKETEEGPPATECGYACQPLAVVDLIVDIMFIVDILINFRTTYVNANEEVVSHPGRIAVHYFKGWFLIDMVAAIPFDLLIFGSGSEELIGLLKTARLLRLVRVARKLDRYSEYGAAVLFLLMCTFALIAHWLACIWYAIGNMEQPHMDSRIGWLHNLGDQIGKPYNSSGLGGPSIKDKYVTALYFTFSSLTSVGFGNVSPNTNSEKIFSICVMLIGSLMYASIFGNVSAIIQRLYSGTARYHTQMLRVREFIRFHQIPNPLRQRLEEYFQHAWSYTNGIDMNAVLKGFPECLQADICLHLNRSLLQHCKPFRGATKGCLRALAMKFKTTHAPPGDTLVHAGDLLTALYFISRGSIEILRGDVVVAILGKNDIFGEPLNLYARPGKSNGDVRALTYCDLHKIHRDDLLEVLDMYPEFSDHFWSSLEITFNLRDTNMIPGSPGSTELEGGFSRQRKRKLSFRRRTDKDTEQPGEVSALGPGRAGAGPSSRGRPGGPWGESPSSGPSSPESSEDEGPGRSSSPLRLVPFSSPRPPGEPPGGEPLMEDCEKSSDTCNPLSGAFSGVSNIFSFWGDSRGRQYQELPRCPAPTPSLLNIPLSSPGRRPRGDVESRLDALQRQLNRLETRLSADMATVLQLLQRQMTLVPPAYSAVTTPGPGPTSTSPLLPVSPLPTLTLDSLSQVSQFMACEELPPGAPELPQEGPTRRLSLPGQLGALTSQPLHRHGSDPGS
row,Compound,"hERG current change (%, negative = inhibition) at 10uM"
1,CCOC(=O)CSc1ccc2nnc(-c3cccnc3)n2n1,-31%
2,COc1ccc(-c2nnc(SCC(=O)Nc3ccccc3OC)o2)cc1,13.6%
3,CCn1ccnc1CNC(=O)CC1C(=O)NCCN1CC(c1ccccc1)c1ccccc1 (centres unmarked),20.5%
4,CCCCn1c(N)c(N(CC)C(=O)c2cccc(S(=O)(=O)N3CCN(C)CC3)c2)c(=O)[nH]c1=O,14.3%
5,COc1ccc2c(c1)c(/C=N/Nc1nc3ccccc3[nH]1)c(C)n2C,-9.63%
6,Cc1ccc(S(=O)(=O)N2CCOC23CCN(C(=O)C(=O)NCCC(C)C)CC3)cc1,-17.2%
7,Cc1cccc(NC(=O)CCc2nnc3ccc(NCc4ccco4)nn23)n1,6.78%
8,CCOc1ccc(C(=S)N2CCOCC2)cc1,-13.2%
9,Cc1cc(C(=O)N/N=C/c2ccc(-c3ccccc3Cl)o2)n[nH]1,-0.4%
10,COC(=O)c1cc(N=CC2=C(O)CC(C)(C)CC2=O)cc(C(=O)OC)c1,-16.3%
11,O=C(COC(=O)c1ccc(Cl)c(Cl)c1)NC1CCCC1,21.9%
12,Cc1ccc(NC(=O)CC(=O)c2ccc([N+](=O)[O-])cc2)cc1S(=O)(=O)Nc1cccc(Cl)c1,12.4%
13,Cc1ccc(Nc2nc3nonc3[nH]c2=O)cc1Cl,27.1%
14,CC(C)(C)n1nnnc1SCC(=O)Nc1nn(-c2ccccc2)nc1C(N)=O,9.33%
15,CCOC(=O)COc1ccccc1-c1ccno1,2.76%
16,O=C(COC(=O)CN1C(=O)C2CC=CCC2C1=O)Nc1cc(C(F)(F)F)ccc1N1CCOCC1 (centres unmarked),-26.8%
17,O=C(/C=C/C(=O)N1CCc2ccccc2C1)N1CCc2ccccc2C1,-12.6%
18,COC(=O)C1=C(c2ccc(F)cc2OCc2ccccc2)C[C@@H]2CC[C@H]1N2C(=O)N1CCCC1,-29.4%
19,CCOc1ccccc1/C=C(\NC(=O)c1ccccc1)C(=O)NCCC(=O)O,5.8%
20,O=C(Nc1ccc(N2CCOCC2)cc1N1CCOCC1)c1cccs1,-1.89%
21,CCOc1ccc(NC(=O)CSc2ncc(-c3ccc(F)cc3)n2Cc2ccco2)cc1,-1.9%
22,Cc1ccc(Cl)cc1N(CC(=O)NC1CCCCC1)S(C)(=O)=O,13.4%
23,Cc1ccc(NC(=O)Cn2c(=O)n(CCCC(=O)NCc3ccco3)c(=O)c3ccccc32)cc1,-4.47%
